Our source for the binding signal values is publication PMC6212790.

Some of the results follow. At the low end of the ranking, values are background and their order means little.

The assay has as its target T1, GST-Rok-C97-191 (UniProt O34857).
T1 sequence: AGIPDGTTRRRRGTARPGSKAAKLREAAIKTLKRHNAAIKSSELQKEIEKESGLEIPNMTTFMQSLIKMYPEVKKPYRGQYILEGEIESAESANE
The experiment in a line: protein binding microarray.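 Also: rank score from −0.5 (least bound) to 0.5 (best bound).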 The following applies: Rok is a gene silencer of Bacillus subtilis; high values mean tight binding; most listed sequences are background and not binding sites; double strand, one strand shown.
The sequence CAATGCAG returned a binding signal of -0.0565 E-score. As for GCACATAC, the figure is -0.0559 E-score; as for TACTTTAA, 0.273 E-score; as for CCCCGAAG, -0.202 E-score.

With AGCCGTCA, the binding signal was -0.289 E-score. AATCCCGT displayed a binding signal of -0.143 E-score. AATTGCCG: the binding signal was 0.182 E-score. Take CTTTCTGC: the binding signal was -0.0564 E-score. As for CCGTTACA, the figure is 0.111 E-score; as for CGAACGAC, -0.189 E-score; as for GGTTACGA, -0.148 E-score. On to AACGCGAC, for which the binding signal is -0.0921 E-score.

As for GAAGTTTA, the binding signal is -0.0766 E-score. As for CACGTCGG, the figure is -0.235 E-score. AATCAACA returned a binding signal of 0.109 E-score. As for CAGGAGGG, the figure is -0.27 E-score; as for GAGCTACA, 0.151 E-score; as for GGTTGACA, -0.0966 E-score. Take CCATACTC: the binding signal was -0.0208 E-score. As for ACGATGCT, the figure is 0.0784 E-score; as for CTATTCTC, -0.0995 E-score. Sequence CCATGGCA displayed a binding signal of -0.0622 E-score. Take CGAATTCA: the binding signal was -0.0458 E-score. As for CCTGGAGC, the figure is 0.0729 E-score; as for AGCCACCA, 0.0177 E-score. Take CCTAGCCC: the binding signal was -0.201 E-score. As for TGTAGTAA, the figure is 0.286 E-score. As for CCCACCTA, the figure is -0.0708 E-score; as for ATCACTTG, 0.141 E-score.

For the sequence GTTTGCGA, the binding signal stood at 0.0625 E-score.

On to TAGGAGAA, for which the binding signal came out at 0.261 E-score. As for AGCTTTCG, the figure is -0.16 E-score; as for CCGCGCAG, -0.186 E-score. Sequence AATAGTAT showed a binding signal of 0.332 E-score.

With ACGGATCT, the binding signal is -0.0876 E-score. For ACTTTTCG, the binding signal was determined as 0.229 E-score. Sequence CAGGGGAG registered a binding signal of -0.324 E-score.

As to ACGAGTGC, the binding signal was -0.00382 E-score. As for AGGACACG, the figure is -0.182 E-score; as for GCGTGCCA, -0.298 E-score.

AACTCTGC had a binding signal of 0.0553 E-score. As for GTAAAGAC, the figure is 0.0109 E-score; as for AGAGTGTA, 0.0487 E-score. As for GGTGTTAA, the figure is -0.0608 E-score.

Consider ACCCGGCC, for which the binding signal is -0.223 E-score. For CCCCCGCA, the binding signal is -0.284 E-score. ACGATTAA gave a binding signal of -0.0187 E-score. As for TACGAACA, the figure is 0.121 E-score. The sequence ATGCCTTC gave a binding signal of -0.0914 E-score. As for CGGGCGGA, the figure is -0.117 E-score; as for CCACCATC, -0.144 E-score.

As for CCCTGGAA, the binding signal was -0.186 E-score. Regarding ATGATGCG, the binding signal stood at 0.117 E-score.

With CCGAAGCC, the binding signal is -0.193 E-score. Turning to CGAACTCA, the binding signal is -0.117 E-score. As for AGGAGACG, the figure is -0.19 E-score; as for CGCTTCGC, -0.182 E-score; as for AGCATATA, 0.212 E-score.

For the sequence AATGGGGG, the binding signal is -0.299 E-score. For GTCCACGA, the binding signal was -0.173 E-score.

CCTCCTTA had a binding signal of -0.0457 E-score. Sequence CCAGATTA yielded a binding signal of -0.119 E-score.

Turning to TAAGACCA, the binding signal was -0.101 E-score. As for GCTAGACC, the figure is -0.185 E-score; as for AAGGGAGC, -0.131 E-score.

Regarding CGAGACAG, the binding signal was -0.167 E-score. As for CCTGTTTC, the figure is -0.0662 E-score. As for CGTTATGA, the figure is -6.11e-05 E-score; as for CCACAACG, -0.13 E-score; as for ATAATAAG, 0.331 E-score. The sequence AAACCCGA yielded a binding signal of -0.0717 E-score. Sequence GCAAACCC had a binding signal of -0.0548 E-score.

Regarding CGGTTCGA, the binding signal is -0.00271 E-score. As to CTCTTATA, the binding signal was found to be 0.0955 E-score. As for CAGCCGAA, the figure is 0.0509 E-score. On to ATAAACCG, for which the binding signal amounted to 0.12 E-score. As for GCCTGATA, the figure is -0.114 E-score; as for AGGCAAAT, 0.0488 E-score.

GCGTAGCC registered a binding signal of -0.251 E-score. As for AGGCTACG, the figure is -0.177 E-score.

For GAACCTAA, the binding signal is -0.00709 E-score.

The sequence ACGAAGCG gave a binding signal of -0.212 E-score. As for CATCCCGG, the figure is -0.209 E-score; as for CATCCACA, 0.0649 E-score. In turn, CACATCAG displayed a binding signal of -0.0403 E-score. GTGCCGGA: the binding signal was -0.0988 E-score.

On to CGGAGACA, for which the binding signal was -0.109 E-score. Regarding ACTAGACA, the binding signal is 0.112 E-score.

In the case of ACGTGCAG, the binding signal was -0.0609 E-score.

As to AGACTATC, the binding signal is -0.0291 E-score. As for ATAGAGAG, the figure is -0.0657 E-score; as for CTTGCTAA, -0.00851 E-score; as for CAGGCTCA, -0.178 E-score. As for ATGGGTGA, the figure is -0.194 E-score; as for GATGGAAA, -0.0063 E-score; as for AACCCTAG, -0.0348 E-score. AAATGTCC yielded a binding signal of 0.0232 E-score. As for GTTTAGAA, the figure is 0.0571 E-score; as for TGTGTGAA, -0.1 E-score; as for CTTGCAGC, -0.206 E-score. With TAGACTGA, the binding signal was -0.0359 E-score.

The sequence ACGAATGG returned a binding signal of -0.107 E-score.

As for ACCCCGTG, the binding signal is -0.134 E-score.

With CCTCCGAC, the binding signal is -0.306 E-score. CAACGCAC registered a binding signal of 0.0033 E-score. As for AAACCTAT, the figure is 0.115 E-score; as for AGCTGTTA, 0.0363 E-score; as for AATCGGCT, -0.0903 E-score.

The sequence AGATTCAA showed a binding signal of 0.183 E-score. As for AGGAGTGA, the figure is -0.0784 E-score; as for ACGTCTTC, -0.0202 E-score; as for GAAAAATA, 0.273 E-score. Sequence CAGCCCAC had a binding signal of -0.133 E-score.

AAAACAAA gave a binding signal of -0.063 E-score. As for AAGTACAG, the figure is 0.256 E-score; as for CTATATTC, 0.274 E-score; as for AATGGTGA, 0.0161 E-score.

For GGTGCAAA, the binding signal came to 0.224 E-score.

CGGATGCC gave a binding signal of -0.149 E-score. As for CACTATCC, the figure is -0.112 E-score. As for CCAACCCG, the figure is -0.123 E-score; as for GCCTTAGA, -0.109 E-score. As for TCTGACAA, the figure is -0.095 E-score; as for AAATTCGT, 0.18 E-score. With AGGATACC, the binding signal is -0.171 E-score. As for ATCGTCAC, the figure is -0.0363 E-score; as for CCAAAAAA, 0.138 E-score; as for TGGAAACA, -0.137 E-score. Turning to ATTTAGTA, the binding signal stood at 0.4 E-score. ACCTCGGC gave a binding signal of -0.211 E-score. As for ACCTCGGG, the figure is -0.00108 E-score; as for CAGTTCAA, 0.00966 E-score.

The sequence CCTTAATA registered a binding signal of 0.000696 E-score. As for AGGGTGTC, the figure is 0.0517 E-score; as for ACTTACAA, 0.215 E-score. As for AGGCAGGG, the figure is -0.256 E-score; as for AATTAGAA, 0.202 E-score; as for AACGACTT, 0.0476 E-score. As for ACTGATCC, the figure is -0.0642 E-score. CATACATA showed a binding signal of 0.234 E-score. As for ATGATGCA, the figure is -0.0342 E-score; as for ACCGTGAC, -0.111 E-score; as for AACCTACG, 0.0917 E-score. As for GTTAAGCA, the binding signal is -0.00396 E-score. As for AATGCGAC, the figure is 0.0487 E-score; as for TCAAGTCA, -0.148 E-score.

Sequence ATACTTAC returned a binding signal of 0.169 E-score. As for CGTAGTGA, the figure is 0.168 E-score. As for CTCGGACA, the figure is -0.0866 E-score; as for AACGGCCA, -0.2 E-score. As for AGAGAATC, the figure is -0.0622 E-score; as for TAGAGGGA, -0.0716 E-score; as for ACATGAAC, 0.084 E-score. The sequence TTGATAAA displayed a binding signal of 0.0291 E-score. GAGTTGTA came in with a binding signal of 0.267 E-score.

GATACCAC returned a binding signal of 0.054 E-score. As for GCCATAGC, the figure is -0.0185 E-score; as for CTTGTGTA, 0.0242 E-score; as for ACTCGAAG, -0.11 E-score. For AGTATTGA, the binding signal amounted to 0.217 E-score. As for AAACAGTA, the figure is 0.093 E-score; as for AGCCCAAG, -0.124 E-score.

Regarding GAAAGGGC, the binding signal is -0.215 E-score. In turn, ATACCTCC showed a binding signal of 0.0179 E-score. Regarding ACATGATC, the binding signal came out at 0.13 E-score.

In the case of TGGCCTAA, the binding signal was -0.0801 E-score. Regarding GGCGGCGA, the binding signal was -0.142 E-score.

For AAGATCAA, the binding signal is 0.021 E-score. As for CTCAAAAG, the figure is -0.223 E-score; as for GACGCTGA, -0.195 E-score. CGCGACTA had a binding signal of 0.12 E-score. As for AATCGCGT, the figure is -0.121 E-score.
